Here are results for three molecules from PMC4802056.

Test [1] addresses T1, Bioease-tagged HSET aa1–150 (human) (UniProt Q9BW19).
T1 sequence: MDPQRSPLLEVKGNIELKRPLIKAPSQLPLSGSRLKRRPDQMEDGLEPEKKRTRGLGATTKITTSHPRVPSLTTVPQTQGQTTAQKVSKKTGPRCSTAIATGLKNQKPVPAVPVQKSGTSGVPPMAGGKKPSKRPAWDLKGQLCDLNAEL
Put plainly: pull-down; whole-cell extracts of HeLa cells expressing Bioease-tagged HSET fragments, streptavidin pull-down, western blotting. In general terms: A western blot detects proteins with antibodies after separation by electrophoresis.

Test [2] deals with T2, centrosomin (Cnn) (Drosophila (endogenous in Dmel2)) (UniProt P54623).
T2 sequence: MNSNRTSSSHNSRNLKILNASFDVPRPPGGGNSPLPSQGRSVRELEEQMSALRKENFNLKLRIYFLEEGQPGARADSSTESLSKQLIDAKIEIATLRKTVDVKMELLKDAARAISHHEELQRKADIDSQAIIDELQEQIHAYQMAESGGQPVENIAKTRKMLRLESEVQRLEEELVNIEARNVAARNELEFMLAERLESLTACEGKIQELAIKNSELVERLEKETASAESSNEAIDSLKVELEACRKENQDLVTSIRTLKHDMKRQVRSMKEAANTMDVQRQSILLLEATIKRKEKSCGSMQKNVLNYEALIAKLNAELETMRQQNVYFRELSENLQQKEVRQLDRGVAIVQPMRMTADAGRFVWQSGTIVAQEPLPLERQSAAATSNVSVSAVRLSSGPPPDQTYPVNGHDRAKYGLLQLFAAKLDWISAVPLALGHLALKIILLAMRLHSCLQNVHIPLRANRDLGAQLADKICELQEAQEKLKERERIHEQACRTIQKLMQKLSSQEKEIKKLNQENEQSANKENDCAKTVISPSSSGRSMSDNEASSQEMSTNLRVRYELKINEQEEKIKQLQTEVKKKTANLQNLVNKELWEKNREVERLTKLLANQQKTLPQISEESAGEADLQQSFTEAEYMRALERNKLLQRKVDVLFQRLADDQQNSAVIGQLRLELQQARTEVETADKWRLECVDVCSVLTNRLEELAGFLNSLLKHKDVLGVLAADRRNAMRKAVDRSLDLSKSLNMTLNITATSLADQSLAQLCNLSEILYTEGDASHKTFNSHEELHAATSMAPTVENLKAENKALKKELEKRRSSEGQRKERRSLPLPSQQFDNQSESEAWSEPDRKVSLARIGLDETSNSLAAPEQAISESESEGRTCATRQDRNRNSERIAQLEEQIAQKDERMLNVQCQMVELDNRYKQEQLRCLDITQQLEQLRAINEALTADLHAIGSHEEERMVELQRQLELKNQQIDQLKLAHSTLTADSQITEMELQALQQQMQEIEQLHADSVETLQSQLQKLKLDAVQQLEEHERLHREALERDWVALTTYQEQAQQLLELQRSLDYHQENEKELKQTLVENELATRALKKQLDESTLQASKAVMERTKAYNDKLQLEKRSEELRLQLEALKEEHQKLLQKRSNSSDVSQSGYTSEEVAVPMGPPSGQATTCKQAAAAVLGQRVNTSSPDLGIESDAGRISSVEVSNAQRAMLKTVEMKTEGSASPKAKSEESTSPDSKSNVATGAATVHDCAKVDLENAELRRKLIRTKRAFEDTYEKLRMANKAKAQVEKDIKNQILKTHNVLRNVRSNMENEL
Put plainly: co-IP; whole-cell extracts of Drosophila Dmel2 cells, immunoprecipitation by an anti-centrosomin (Cnn) antibody, western blotting.

Test [3] deals with CEP215 (human, HeLa) (human (endogenous in HeLa)) (UniProt Q96SN8). Put plainly: co-IP; whole-cell extracts of mitotic HeLa cells, immunoprecipitation by an anti-CEP215 antibody or random IgG, western blotting.
Test [4] deals with T3, CEP215 aa300–600 (tagged fragment expressed in HeLa cells) (human) (UniProt Q96SN8).
T3 sequence: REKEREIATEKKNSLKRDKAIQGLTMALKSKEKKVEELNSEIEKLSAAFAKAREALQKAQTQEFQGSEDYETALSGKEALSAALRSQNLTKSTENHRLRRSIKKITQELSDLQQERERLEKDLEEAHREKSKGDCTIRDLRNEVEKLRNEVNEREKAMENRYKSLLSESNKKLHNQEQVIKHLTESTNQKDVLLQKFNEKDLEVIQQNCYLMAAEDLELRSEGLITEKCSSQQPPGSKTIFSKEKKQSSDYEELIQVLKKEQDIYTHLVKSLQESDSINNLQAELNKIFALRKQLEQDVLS
Put plainly: pull-down; whole-cell extracts of HeLa cells expressing FLAG-tagged CEP215 fragments (FLAG pull-down) or of CEP215-depleted HeLa cells expressing Bioease-tagged CEP215 fragments (streptavidin pull-down), western blotting.

For test [5], the target named is T4, CEP215 aa500–700 (tagged fragment expressed in HeLa cells) (human) (UniProt Q96SN8).
T4 sequence: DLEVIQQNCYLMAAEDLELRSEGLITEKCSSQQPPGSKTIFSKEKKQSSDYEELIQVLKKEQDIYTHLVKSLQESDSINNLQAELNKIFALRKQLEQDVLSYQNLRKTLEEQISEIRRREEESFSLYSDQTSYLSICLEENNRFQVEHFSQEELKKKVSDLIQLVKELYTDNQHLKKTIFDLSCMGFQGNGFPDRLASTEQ
The description is as above.

These are yes or no findings as the source states them, for the method shown. In cells and extracts the contact can be indirect. Some binding calls cover weakened binding; strength is not graded here. For some assays here: Where a sequence is shown, tags or fusion partners need not be part of it.

Consider “CEP215 (human, HeLa) (from UniProt Q96SN8 1-1893)”, for which, in test [1], the binding result is on record as “binds”.

B1: non-claret-disjunctional (ncd) (protein, UniProt P20480 1-700)
chain: MESRLPKPSGLKKPQMPIKTVLPTDRIRAGLGGGAAGAGAFNVNANQTYCGNLLPPLSRDLNNLPQVLERRGGGARAASPEPMKLGHRAKLRRSRSACDINELRGNKRTAAAPSLPSIPSKVSRLGGALTVSSQRLVRPAAPSSITATAVKRPPVTRPAPRAAGGAAAKKPAGTGAAASSGAAAAAPKRIAPYDFKARFHDLLEKHKVLKTKYEKQTEDMGELESMPQQLEETQNKLIETESSLKNTQSDNECLQRQVKQHTAKIETITSTLGRTKEELSELQAIHEKVKTEHAALSTEVVHLRQRTEELLRCNEQQAAELETCKEQLFQSNMERKELHNTVMDLRGNIRVFCRIRPPLESEENRMCCTWTYHDESTVELQSIDAQAKSKMGQQIFSFDQVFHPLSSQSDIFEMVSPLIQSALDGYNICIFAYGQTGSGKTYTMDGVPESVGVIPRTVDLLFDSIRGYRNLGWEYEIKATFLEIYNEVLYDLLSNEQKDMEIRMAKNNKNDIYVSNITEETVLDPNHLRHLMHTAKMNRATASTAGNERSSRSHAVTKLELIGRHAEKQEISVGSINLVDLAGSESPKTSTRMTETKNINRSLSELTNVILALLQKQDHIPYRNSKLTHLLMPSLGGNSKTLMFINVSPFQDCFQESVKSLRFAASVNSCKMTKAKRNRYLNNSVANSSTQSNNSGSFDK
Take B1: the binding result in test [2] is on record as “no binding”.

B2: HSET (human, HeLa) (protein, UniProt Q9BW19 1-673)
chain: MDPQRSPLLEVKGNIELKRPLIKAPSQLPLSGSRLKRRPDQMEDGLEPEKKRTRGLGATTKITTSHPRVPSLTTVPQTQGQTTAQKVSKKTGPRCSTAIATGLKNQKPVPAVPVQKSGTSGVPPMAGGKKPSKRPAWDLKGQLCDLNAELKRCRERTQTLDQENQQLQDQLRDAQQQVKALGTERTTLEGHLAKVQAQAEQGQQELKNLRACVLELEERLSTQEGLVQELQKKQVELQEERRGLMSQLEEKERRLQTSEAALSSSQAEVASLRQETVAQAALLTEREERLHGLEMERRRLHNQLQELKGNIRVFCRVRPVLPGEPTPPPGLLLFPSGPGGPSDPPTRLSLSRSDERRGTLSGAPAPPTRHDFSFDRVFPPGSGQDEVFEEIAMLVQSALDGYPVCIFAYGQTGSGKTFTMEGGPGGDPQLEGLIPRALRHLFSVAQELSGQGWTYSFVASYVEIYNETVRDLLATGTRKGQGGECEIRRAGPGSEELTVTNARYVPVSCEKEVDALLHLARQNRAVARTAQNERSSRSHSVFQLQISGEHSSRGLQCGAPLSLVDLAGSERLDPGLALGPGERERLRETQAINSSLSTLGLVIMALSNKESHVPYRNSKLTYLLQNSLGGSAKMLMFVNISPLEENVSESLNSLRFASKVNQCVIGTAQANRK
With B2, the binding result in test [3], in test [4] and in test [5] was “binds” throughout.
